According to the supplement of paper PMC11417369:
± gives the standard deviation of the averaged measurements. This is one part of the list.

Test system: PfAP2-EXP AP2 domain (GST-tagged)
Assay: gcPBM binding intensity (ln(normalized median fluorescence intensity)); higher = stronger DNA binding
Summary of the method: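 DNA-binding domains from P. falciparum, fused to GST and produced in E. coli, were put on an Agilent 4 × 180k double-stranded probe array for 1 h in 1× PBS holding 1% milk, 0.2 mg/ml BSA, 0.5% salmon testes DNA and 0.03% Triton X-100. Probes were primer-extended, 36 bp long and drawn from intergenic genomic regions, with negative controls included. After Alexa488 anti-GST antibody detection and a 488 nm scan, binding intensity was set as the highest Masliner-normalised natural-log median intensity across replicate spots of either probe orientation.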

Sequence	gcPBM binding intensity (ln)
TATATATATTGTTATTGTACACAAATATAGGAAATA [XGTACX_site7110]	8.56 ± 0.23
ATAAATTAAACAAACACACACGTTCTTTTATTTACT [CACACA_site4556]	8.53 ± 0.45
AAAAAAATATATTCCTAATTTATGATTAAAAGGAAT [CACACA_negctrl_site751]	8.1 ± 0.3
TTTTTTTTTGGGTGTACACATGAATATATATTTTTT [CACACA_site5254]	8.77 ± 0.32
AGAATTATATCATGGTGTACTTATTTGTTTATTTCT [XGTACX_site5795]	8.73 ± 0.38
GAATAAATAAAAATATGTACATAAATATATATATAT [XGTACX_site8858]	9.88 ± 0.22
AAAAAAAAAAAATATATATATATATATATAATATTT [GTGCAC_negctrl_site678]	8.3 ± 0.24
AAAAAAAAATAAAAAAGTACAGGTAAATATATATAT [XGTACX_site5812]	9.42 ± 0.16
AAGACAAATATGTATTGTACGAACGCTTTTTAATTA [XGTACX_site1961]	8.53 ± 0.47
ATACTTTAAAATAATACACACATGGAAAATAAAATT [CACACA_site697]	8.76 ± 0.57
TTTATAAAATATCTTTCACACATTACTATGTATTAT [CACACA_site5148]	8.44 ± 0.37
ATAAAAGTTTAATATTGTACGAACATGCGTTTCTAA [XGTACX_site1487]	8.3 ± 0.46
ATAAATAGAATAAAATGTACATGTAATACATATATA [XGTACX_site5475]	8.53 ± 0.3
TTCTTAAAAAATCAAACACACATATATATATACATA [CACACA_site2296]	8.56 ± 0.37
GTTTAGATAAAAGGGCGTACATCTATTTTTGACTAA [XGTACX_site7170]	8.38 ± 0.35
AAAAAAAAAAAAAAAACACACAATTGAATTATTAAG [CACACA_site2864]	8.51 ± 0.26
TTTTATTATTAAACATGTACCCATATTATTGTTATG [XGTACX_site5563]	8.7 ± 0.37
TTATTGCGCACAATTTGTACATATATATATATAGAA [XGTACX_site7573]	9.05 ± 0.2
AATTTATTAATACAAAGTACTTTCTAATATGAATTT [XGTACX_site8013]	8.37 ± 0.42
ATATTTATACTATACACACCCAATTTAAAAAAAAAT [CACACA_site1163]	8.71 ± 0.52
GAAAAATTAAAATGTGGTACAATAAAATTTTATTCA [XGTACX_site5030]	8.41 ± 0.33
GTAAGAAACAGACACACACACATATAAATATAAATA [CACACA_site6515]	8.77 ± 0.64
TATTGAAAAAGTGGAAAAAAGTACATCATACGGGAA [CACACA_negctrl_site1091]	9.04 ± 0.37
TATATACATTTTTATGTGCACATTTTATTTTTAAAT	9.15 ± 0.31
TAAATCACAAAATTATGTACTAAGAAGGAGCAACAT [XGTACX_site6742]	8.88 ± 0.32
